Experimental data as given in PubChem BioAssay AID2202238 (Ras Initiative Chemistry Research Team, Frederick National …, 2025).
Some of the results follow. Further columns of the screen follow, without active or inactive calls.

Molecular target: GTPase KRas (Homo sapiens) (UniProt P01116)
Assay: Fragment capture on engineered cysteines, share of protein labelled (AID 2202238)
Parameters: protein at 5 µM with 500 µM competing thiol for 1.5 h
Conditions: KRAS G12D cysteine mutants, disulfide tethering, MALDI-TOF labeling, stronger effect = higher value, fragment at 500 µM
[1] = measured here: G60C mutant labeling
[2] = measured here: G75C mutant labeling
[3] = measured here: H94C mutant labeling
[4] = measured here: I36C mutant labeling
[5] = measured here: L120C mutant labeling
[6] = measured here: M67C mutant labeling
[7] = measured here: M72C mutant labeling
[8] = measured here: N26C mutant labeling
[9] = measured here: N86C mutant labeling
[10] = measured here: P121C mutant labeling
[11] = measured here: S122C mutant labeling
[12] = measured here: S136C mutant labeling

UniProt P01116, sequence (P01116 whole entry, looked up, the tested form may be a part): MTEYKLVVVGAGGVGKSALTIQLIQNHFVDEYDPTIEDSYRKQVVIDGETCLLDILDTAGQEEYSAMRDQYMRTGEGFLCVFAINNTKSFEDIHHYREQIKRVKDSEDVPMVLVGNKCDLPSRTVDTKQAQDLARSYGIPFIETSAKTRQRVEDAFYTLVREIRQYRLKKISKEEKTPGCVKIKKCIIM

| Structure (SMILES) | percent labeling [1] [%] | percent labeling [2] [%] | percent labeling [3] [%] | percent labeling [4] [%] | percent labeling [5] [%] | percent labeling [6] [%] | percent labeling [7] [%] | percent labeling [8] [%] | percent labeling [9] [%] | percent labeling [10] [%] | percent labeling [11] [%] | percent labeling [12] [%] |
| --- | --- | --- | --- | --- | --- | --- | --- | --- | --- | --- | --- | --- |
| O=C(NCCS)c1cc2sc3ccccc3c2s1 | 23.6 | 4.7 | 8.3 | 8.9 | 14.2 | 7.5 | 63.8 | 15.6 | 9 | 8.8 | 8.6 | 14.8 |
| COc1ccc2cc(C(=O)NCCS)n(C)c2c1 | 10.4 | 13.6 | 9.2 | 6.6 | 8.7 | 6 | 45.3 | 37.9 | 7.5 | 8.6 | 8.6 | 14.9 |
| O=C(NCCS)c1cnn(-c2ncccc2Cl)c1C(F)(F)F | 60.6 | 27.9 | 32.9 | 22.2 | 23.6 | 25 | 47.2 | 27.3 | 31.6 | 21.3 | 22.5 | 43.6 |
| O=C1CC2(CCOC2)C(C(=O)NCCS)CN1 (configuration not stated) | 14.2 | 5.9 | 22.7 | 22.5 | 24.6 | 23.3 | 6.9 | 27.2 | 26.1 | 27.4 | 25.6 | 31 |
| O=C(NCCS)c1ccn(-c2ccc(Cl)cc2Cl)n1 | 20.1 | 9.3 | 13.5 | 9.9 | 14.8 | 10.4 | 34 | 24.9 | 10 | 12.1 | 6.9 | 16.1 |
| Cc1cccc(C)c1-n1nnnc1CNC(=O)CCS |  | 13.2 | 37 | 45.9 | 33.2 | 36.1 | 50.9 |  | 38.5 | 36.9 | 39.9 | 62.1 |
| O=C(CCCOc1ccc2c(c1)CCC(=O)N2)NCCS | 47.5 | 16.1 | 36.9 | 37 | 33.7 | 34.8 | 50.1 | 48.2 | 24.1 | 32.5 | 27.9 | 43.3 |
| Cn1cc(C(=O)NCCS)c2c(c1=O)CCCC2 | 45 | 19.6 | 36.4 | 27.6 | 39.3 | 38.6 | 64.2 | 51.3 | 30.8 | 37.5 | 34.5 | 56.9 |
| O=C1CC(C(F)(F)F)C(C(=O)NCCS)N1 (configuration not stated) | 24.8 | 12.1 | 26.3 | 25.6 | 26.7 | 23.9 | 12.7 | 32.1 | 24.6 | 30.6 | 27.5 | 34.9 |
| O=C(CCS)NCc1conc1C1CCC1 |  | 16.2 | 37.6 | 39.6 | 28.7 | 35.3 | 34 |  | 26.9 | 38.3 | 33.7 | 51.9 |
| O=C(CCS)NCc1ccncc1OCC(F)(F)F |  | 12.9 | 35.8 | 31.2 | 29.8 | 34.9 | 27.3 |  | 20.6 | 30.1 | 30.9 | 41.8 |
| COCCC1(c2nc(C)no2)CCN(C(=O)CCS)CC1 |  | 8.8 | 28.3 | 35 | 31.6 | 33.3 | 16 |  | 18.4 | 29.8 | 31.5 | 53.4 |
| O=C(CCS)NC1(c2ccc(Br)cn2)CCC1 |  | 20.1 | 46.6 | 44.5 | 33.9 | 40.5 | 38.2 |  | 44 | 35.5 | 32.1 | 58.3 |
| O=C(CCS)NCc1nnc(-c2ccncc2F)s1 |  | 10.9 | 31.9 | 38.6 | 33.3 | 48.2 | 28.2 |  | 20.2 | 27.2 | 25.8 | 45.7 |
| CCc1occ(C(F)(F)F)c1C(=O)NCCS | 49.2 | 14.6 | 32.4 | 14.3 | 21.7 | 17.7 | 19.8 | 28.6 | 31.5 | 18.6 | 19.7 | 23.8 |
| Cc1nc2c(c(C(F)(F)F)n1)CC(C(=O)NCCS)CC2 (configuration not stated) | 48.3 | 25.3 | 38.2 | 28 | 37.6 | 43.2 | 26.7 | 42.7 | 26.1 | 33.7 | 27 | 53.6 |
| CN(C(=O)CCS)C(Cc1ccc(F)cc1)c1ccn(C)n1 (configuration not stated) |  | 17.5 | 44.4 | 37.2 | 32.7 | 52.1 | 49.5 |  | 28.4 | 32.8 | 34.3 | 62.9 |
| CS(=O)(=O)Cc1n[nH]c(CNC(=O)CCS)n1 |  | 12.3 | 27.2 | 33.4 | 31.5 | 25.8 | 13.9 |  | 15.4 | 31.5 | 34.8 | 37.9 |
| O=C(CCS)Nc1cc(F)c(-n2ccnc2)c(F)c1 |  | 16.7 | 26.5 | 33.9 | 24.5 | 41.8 | 60.6 |  | 16.6 | 25.9 | 19.4 | 32.1 |
| O=C(NCCS)c1cnn(-c2ccccc2F)c1 | 27.2 | 20.5 | 22.8 | 14 | 20.3 | 19.7 | 55.7 | 40.7 | 17.3 | 34.8 | 11.9 | 40 |
| Cc1cc(CNC(=O)CCS)cc(N2CCCC2)n1 |  | 15.2 | 35.6 | 44.8 | 24 | 58.4 | 27.4 |  | 14.1 | 27.2 | 25.4 | 54.6 |
| O=C(NCCS)c1cc(Br)n2c1CCC2 | 48.6 | 11.4 | 33.9 | 17.7 | 28.1 | 20.4 | 37.1 | 28.5 | 20.7 | 19.2 | 16 | 29.3 |
| Cn1cc(Br)cc1C(=O)NCCS | 55.5 | 18.6 | 34 | 18.8 | 24.1 | 16.4 | 37.1 | 41.9 | 10.6 | 22.1 | 17.1 | 27.6 |
| Cc1ccc(CN(C(=O)CCS)c2ccc3[nH]c(=O)[nH]c3c2)cc1 |  | 21.9 | 42.9 | 29 | 23.7 | 29.3 | 43.4 |  | 25.3 | 21.9 | 14.6 | 46.1 |
| CN(C)C(=O)COc1ccccc1C(=O)NCCS | 34.2 | 12.6 | 47.8 | 23 | 48.2 | 37.2 | 43.7 | 36.2 | 25.3 | 29.6 | 33.2 | 51.4 |
| CCn1nccc1CN(CCO)C(=O)CCS |  | 8.4 | 27.8 | 27.4 | 24.8 | 29.7 | 15.5 |  | 18.5 | 36 | 30.7 | 46.1 |
| Cc1cccc(Nc2ccccc2C(=O)NCCS)c1C | 44.8 | 16 | 23 | 13.9 | 22 | 12.4 | 60.5 | 23.5 | 14.1 | 17.3 | 8 | 15.2 |
| Cc1csc(-c2ccc(C(=O)NCCS)cc2)n1 | 21.2 | 13.2 | 15.7 | 11.7 | 21.1 | 13.2 | 61.6 | 29.3 | 14.9 | 15.9 | 11 | 20.8 |
| O=C(CCS)Nc1cccc(CN2C(=O)CNC2=O)c1 |  | 17 | 43 | 42.5 | 38.5 | 34.3 | 42.7 |  | 54.2 | 33 | 36.6 | 53.9 |
| NC(=O)Cc1cc(Br)c(-c2ccc(NC(=O)CCS)cc2)s1 |  | 23 | 11.2 | 21.9 | 6.5 | 5.6 | 75.2 |  | 15.2 | 7.1 | 5.5 | 17.9 |
